About 120 (0.25%) of roughly 48,000 compounds were called active. Another 4% or so got no clear call; they are omitted. Calls come from the whole dose curve; as a rule, active = well fitted activation curve with a large enough effect; inconclusive = small, poorly fitted or top-dose-only effect, or another doubt; inactive = no such curve, though single readings can be large or run the other way. This is one part of the list.

These results are taken from PubChem BioAssay AID1508624 (National Center for Advancing Translational Sciences (NCATS), 2021).

A short description of this assay: Primary qHTS for Identification of Small Molecule Activators of Huntingtin-Antisense Promoter Activity. Note: nearly all actives have a fitted effect of over 55% in size. Conditions: HEK293 HTT-AS promoter firefly luciferase reporter (activity 0% = vehicle and -100% = no light), 24 h; series mostly up to 57.5 µM; activity change, positive = activation: at the top concentration. Summed up: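 Firefly luciferase readout (Dual-Glo, 10 min RT) after 24 h, 37 °C compound exposure (final up to 57.5 uM) of HEK293 reporter cells cultured 24 h beforehand; PTC124 at 50 uM final as control inhibitor; activity scaled vehicle 0%, zero RLU -100%.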
Background: In qHTS, concentration-response curves come from the screen itself.
For the compound `Cc1cc(C)c2oc(-c3cccc(NC(=O)c4ccc(Br)o4)c3)nc2c1`, the “activity change, positive = activation” value is inactive: 9.14%.
Under `CCOc1ccc(NC(=O)c2oc3ccccc3c2NC(=O)Cc2ccc(F)cc2)cc1` stands inactive: -1.71%; under `CCC(C)c1ccc(OCC(=O)Nc2cccc(-c3nc4ncccc4o3)c2)cc1` (centres undefined), inactive: -1.41%; under `CSc1ccc(CNC(=O)CCn2ccc3cc(S(=O)(=O)N4CCC(C)CC4)ccc32)cc1`, inactive: -20.4%.
`COc1ccc(N2CCN(C(=O)c3cnc(N4CCCC4)nc3C)CC2)cc1`: the “activity change, positive = activation” value was inactive: -8.37%.
Under `CC1=C(c2ccc(C)cc2)S(=O)(=O)N(Cc2ccc(C(=O)NCc3cccc(C)c3)cc2)C1=O` stands inactive: -27.1%; under `COc1ccccc1CNS(=O)(=O)c1ccc2[nH]c3c(c2c1)CCCCC3`, inactive: -29%; under `CCC(Sc1nc2ccccc2c2nc(CCc3c(C)n[nH]c3C)nn12)C(=O)Nc1ccc(F)cc1` (centres undefined), inactive: -6.87%.
Under `Cc1c(Cl)cccc1NC(=O)N1CCC(CN2CCCC2)CC1` stands inactive: -8.27%; under `O=C(Nc1sc2c(c1C(=O)Nc1ccccc1Cl)CCCC2)c1ccccc1F`, inactive: 9.44%; under `COc1ccc(CCNC(=O)CN(c2ccccc2OC)S(=O)(=O)c2ccc(C)cc2)cc1`, inactive: -37.7%.
Under `COC(=O)c1c(NC(=O)c2cc(=O)c3ccc(C)c(C)c3o2)sc2c1CCCC2` stands inactive: 3.08%.
Take `O=C(NCc1ccccc1Br)C1CCCN(C(=O)N2CCOc3ccccc32)C1` (centres undefined): the “activity change, positive = activation” value was inactive: -25.4%.
For the compound `CCCCN(CCCC)CC(O)c1cc(Cl)cc2c1-c1ccc(Cl)cc1C2=Cc1ccc(Cl)cc1` (centres undefined), the “activity change, positive = activation” value is inactive: -0.925%.
The result for `COCCCNC(=O)Cn1c(=O)n(Cc2ccc(C(=O)NCc3ccc(C)cc3)cc2)c(=O)c2ccccc21` reads inactive: -13.8%; that for `Cc1ccc(NC(=O)CSc2nc(C)c(Cc3ccccc3)c(=O)[nH]2)cc1`, inactive: -28.3%; that for `COc1ccc(-c2cc3nc(-c4ccccc4)cc(C(F)(F)F)n3n2)cc1`, inactive: 1.16%.
The result for `COc1ccc(CCNC(=O)Cc2c(C)c3c(cc(C)c4c(C)coc43)oc2=O)cc1` reads inactive: 1.85%.
Under `O=C(Nc1ccccc1F)c1nc(S(=O)(=O)Cc2ccccc2F)ncc1Cl` stands inactive: -90%; under `CCN(C(=O)c1noc2c1COc1ccc(C)cc1-2)c1cccc(C)c1`, inactive: -19.4%.
As for `CCOc1ccc(-c2nnc(SCC(=O)NC3CCCC3)nc2-c2ccc(OCC)c(OC)c2)cc1OC`, the “activity change, positive = activation” value was inactive: 28.8%.
On to `CC(C)(C)OC(=O)N1CCC(c2c(C(=O)NCCN3CCC(Cc4ccccc4)CC3)cnn2-c2cccc(Cl)c2)CC1`, for which the “activity change, positive = activation” value is inactive: -52.3%.
Under `Cc1cccc(N2CCN(C(=O)c3cc(S(=O)(=O)N4CCC(C)CC4)cn3C)CC2)c1C` stands inactive: -25.6%.
The result for `CCCNC(=O)c1ccc2c(c1)N=C(C)c1c(C)ccc(C)c1S2` reads inactive: -53.6%; that for `O=C(NCCCN1CCN(c2ccccc2)CC1)c1nnc(Cc2c(F)cccc2Cl)o1`, inactive: -27.5%.
Under `O=C(NCc1ccc(Cl)cc1)C(=O)NCC(c1cccs1)S(=O)(=O)c1ccc(Cl)cc1` (centres undefined) stands inactive: -25.2%; under `CCOc1ccc(CCNC(=O)C2CCN(c3ncnc4c3nc3n4CCCCC3)CC2)cc1`, inactive: -27.7%.
On to `Cc1ccccc1NC(=O)CCC(=O)N1CCSc2ccccc21`, for which the “activity change, positive = activation” value is inactive: -15.2%.
Under `Cc1ccc(S(=O)(=O)N(CC(=O)Nc2ccc(C(C)C)cc2)Cc2ccccc2)cc1` stands inactive: -32.1%; under `CC(=O)N1c2ccc(S(=O)(=O)NCC3CCC(C(=O)NC(C)(C)C)CC3)cc2CC1C` (centres undefined), inactive: -5.39%; under `O=C(NCC(c1cccs1)S(=O)(=O)c1cccs1)c1ccccc1F` (centres undefined), inactive: -5.02%.
The result for `CCN(CC)c1nn2c(=O)c(C(=O)NCc3ccc(OC)cc3OC)cnc2s1` reads inactive: -15%.
Under `Clc1ccccc1N1CCN(c2ncnc3c2c(-c2ccccc2)cn3-c2ccccc2)CC1` stands inactive: -11.1%; under `COc1ccccc1CNC(=O)c1ccccc1NC(=O)c1nsc2ccccc12`, inactive: 9.47%.
`Cc1ccc(-n2nc3ccc(NC(=O)c4oc5ccccc5c4C)cc3n2)cc1`: the “activity change, positive = activation” value was inactive: 8.46%.
For the compound `CCOC(=O)c1[nH]c2ccccc2c1NC(=O)c1ccccc1OCC`, the “activity change, positive = activation” value is inactive: -30.2%.
The result for `O=C(Nc1ccc2c(c1)CCCN2C(=O)c1cccs1)c1cccc(C(F)(F)F)c1` reads inactive: -29.9%.
The result for `CCOc1cc(C(=O)Nc2ccc(Cl)c(-c3nc4ccccc4[nH]3)c2)cc(OCC)c1OCC` reads inactive: -33.8%.
The result for `Cc1ccc(C(=O)Nc2ccc(Br)cc2)cc1S(=O)(=O)N1CCOCC1` reads inactive: -22.4%; that for `CC(=O)c1cccc(NC(=O)Cn2c(=O)c(CNc3ccc(C)cc3)cc3cc4c(cc32)OCCO4)c1`, inactive: -5.19%; that for `COc1ccccc1C(=O)Nc1ccc2nc(N3CCC(C)CC3)cc(C)c2c1`, inactive: -18.2%.
As for `CCOc1ccccc1NS(=O)(=O)c1c(C)nc2sccn2c1=O`, the “activity change, positive = activation” value is inactive: -13.5%.
The result for `CCn1c(=O)c2cc(C(=O)N(CCCOC(C)C)Cc3ccco3)sc2c2ccccc21` reads inactive: -33%; that for `Cc1ccc(-c2sc(C(=O)Nc3ccc(Br)cc3)cc2CC(=O)O)cc1`, inactive: -13.5%.
The result for `COc1ccc(NC(=O)CSc2nc3c([nH]c4ccccc43)c(=O)n2C)cc1` reads inactive: -7.53%; that for `Nc1c(C(=O)Nc2ccccc2Cl)c2ccccn2c1C(=O)c1ccc(Cl)cc1`, inactive: 2.04%; that for `Cc1ccc(CNC(=O)CSc2ncc(S(=O)(=O)c3ccc(Br)cc3)c(=O)[nH]2)cc1`, inactive: 1.44%.
On to `COc1ccc(NS(=O)(=O)c2ccc3c(c2)C(C(C)C)C(=O)N3)cc1` (centres undefined), for which the “activity change, positive = activation” value is inactive: -25.1%.
As for `CC1(C)S[C@@H]2[C@H](NC(=O)[C@H](N)c3ccccc3)C(=O)N2[C@H]1C(=O)O`, the “activity change, positive = activation” value is inactive: -0.778%.
